Assay results as given in article PMC4336329 (PLoS ONE, 2015).
Hit rate of the full screen: of about 310,000 compounds, about 2,200 (0.71%) showed an effect of 50% or more. The effect is printed as a negative number. The list shows a part of the results.

What follows are compounds tested against human ether-à-go-go-related gene (hERG) potassium channel (human, UniProt Q12809) (assay: primary screen, population patch clamp on CHO cells stably expressing hERG).
human ether-à-go-go-related gene (hERG) potassium channel, sequence (Q12809 whole entry, looked up): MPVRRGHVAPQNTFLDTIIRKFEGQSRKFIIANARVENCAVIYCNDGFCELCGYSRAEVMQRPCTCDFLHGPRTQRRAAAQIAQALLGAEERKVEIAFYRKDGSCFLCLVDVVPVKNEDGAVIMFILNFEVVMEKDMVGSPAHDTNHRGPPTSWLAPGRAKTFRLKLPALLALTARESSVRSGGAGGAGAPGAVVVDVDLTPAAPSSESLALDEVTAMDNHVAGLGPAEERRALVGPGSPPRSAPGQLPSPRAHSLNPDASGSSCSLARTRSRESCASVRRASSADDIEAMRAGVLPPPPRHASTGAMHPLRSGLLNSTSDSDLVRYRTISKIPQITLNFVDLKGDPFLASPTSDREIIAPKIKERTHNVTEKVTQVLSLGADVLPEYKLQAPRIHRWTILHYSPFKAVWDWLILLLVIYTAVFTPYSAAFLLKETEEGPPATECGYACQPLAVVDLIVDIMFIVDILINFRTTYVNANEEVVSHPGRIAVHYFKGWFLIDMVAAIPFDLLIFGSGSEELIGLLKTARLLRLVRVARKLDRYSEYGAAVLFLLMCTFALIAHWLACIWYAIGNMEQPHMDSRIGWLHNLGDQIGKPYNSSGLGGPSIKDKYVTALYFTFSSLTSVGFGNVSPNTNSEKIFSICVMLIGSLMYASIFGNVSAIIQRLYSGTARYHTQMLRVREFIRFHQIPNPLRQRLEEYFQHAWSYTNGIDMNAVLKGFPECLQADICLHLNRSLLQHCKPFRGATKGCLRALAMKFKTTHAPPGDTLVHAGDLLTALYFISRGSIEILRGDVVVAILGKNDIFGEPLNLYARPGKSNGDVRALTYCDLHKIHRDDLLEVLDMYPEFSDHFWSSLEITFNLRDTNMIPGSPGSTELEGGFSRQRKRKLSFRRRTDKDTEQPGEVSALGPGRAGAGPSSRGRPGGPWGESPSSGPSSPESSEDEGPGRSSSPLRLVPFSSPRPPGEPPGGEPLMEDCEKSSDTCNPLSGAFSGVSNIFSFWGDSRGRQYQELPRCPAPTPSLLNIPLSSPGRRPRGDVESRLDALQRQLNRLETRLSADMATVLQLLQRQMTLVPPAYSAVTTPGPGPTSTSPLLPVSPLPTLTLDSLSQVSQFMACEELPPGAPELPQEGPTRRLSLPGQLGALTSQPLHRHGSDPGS

| SMILES | hERG current change (%, negative = inhibition) at 1uM [%] |
| --- | --- |
| CCOc1ccc(NC(=O)c2c3c(nc4ccccc24)CCC3)cc1 | 10.9 |
| Cc1sc(NC(=O)CSc2nnnn2C2CCCC2)c(C#N)c1C | 3.2 |
| CN(C)CCNc1oc(-c2ccccc2F)nc1C#N | -2.49 |
| Cc1ccc(C2C(C(=O)O)c3ccccc3C(=O)N2C)c(C)c1 (stereo not drawn) | -5.66 |
| COc1ccc2nc(NCCNC(=S)NCCCN3CCOCC3)c(C#N)cc2c1 | 9.15 |
| O=S(=O)(NCc1ccccc1)c1cccs1 | 9.54 |
| CC(CCc1ccccc1)NC(=O)N1CCOCC1 (stereo not drawn) | 0.544 |
| COc1ccc(-c2cc(=O)c3ccccc3[nH]2)cc1 | 10.1 |
| NC(=O)NCc1cccc(Cl)c1 | 9.96 |
| CCc1c(O)nc(SCC(=O)Nc2ccccc2C)[nH]c1=O | 9.34 |
| O=C(Nc1ccccc1C(=O)O)c1ccc(NC(=O)c2ccc(Br)o2)cc1 | 17 |
| O=C1C=C(N2CCN(C(=O)c3ccccc3)CC2)C2(CCCCC2)O1 | -1.92 |
| CC1=NN(S(=O)(=O)c2ccc(Cl)cc2Cl)C(=O)c2ccccc2O1 | 10.2 |
| Cc1ccc(NC(=O)[C@H](C)NC(=O)C2CCN(C(=O)[C@@H](N)C(C)C)CC2)cc1 | 11.9 |
| COc1ccc(NC2CCCN(C(=O)c3cn(C)c4ccccc34)C2)cc1 (stereo not drawn) | 19.3 |
| O=C1CN(c2nc3nonc3nc2N2CCCCC2)CCN1 | 9.69 |
| CCNC(=S)NNC(=O)c1cc(C2CC2)nc2ccccc12 | -6.45 |
| O=C1CC2(CCN(C(=O)COc3ccccc3)CC2)Oc2ccccc21 | -21.4 |
| O=C(Cc1ccccc1)NCCn1ccc2ccccc21 | 6.68 |
| Cc1ccc(C)c(NC(=O)C2CCCN(c3cnccn3)C2)c1 (stereo not drawn) | 3.15 |
| C#CCNC(=O)C1=C[C@@H](c2cn(C(C)=O)c3ccccc23)C[C@@H](OCCCCO)O1 | -13.8 |
| CC(=O)Nc1ccc(NCC(O)COc2ccccc2)cc1.Cl (stereo not drawn) | -7.4 |
| COc1cc(CNCCc2c[nH]c3ccccc23)ccc1OCc1ccccc1F.Cl | -4.68 |

| SMILES | hERG current change (%, negative = inhibition) at 1uM [%] |
| --- | --- |
| O=C(O)CCCn1nc(C(F)(F)F)c2c1CCCCC2 | 1.68 |
| O=C(CSc1nc2ccccc2c(=O)n1-c1ccc(F)cc1)Nc1ccc(Cl)c(S(=O)(=O)N2CCOCC2)c1 | 7.78 |
| CCCCCc1ccc(-c2ccc(OCC)cc2)nc1 | -1.27 |
| CSc1ccccc1-n1nnnc1SCC(=O)Nc1cc(C)ccc1C | 6.15 |
| COC(=O)c1nc2ccccn2c1F | 13.8 |
| Cn1nc(C(=O)Nc2nc3ccccc3[nH]2)ccc1=O | 7.15 |
| CCOC(=O)c1ccc(S(=O)(=O)Nc2ccc3cn[nH]c3c2)cc1 | 0.571 |
| S=C1N(c2ccccc2)C(c2ccc(Br)cc2)N2CCCN12 (stereo not drawn) | 11.6 |
| COC(=O)[C@H](CCSC)NC(=O)NCCC1=CCCCC1 | 1.7 |
| Cc1cccc(/C=N/NC(=O)c2cc3c(s2)-c2ccccc2CC3)c1 | 12.7 |
| Cl.O=C(CN(CCO)c1ccccc1)NC12CC3CC(CC(C3)C1)C2 | 2.99 |
| C/C(=C\c1ccccc1)CN1CCN(c2ccccc2F)CC1 | 14 |
| COc1cc(/C=C2\SC(=S)N(CCC(=O)Nc3ccc(O)cc3)C2=O)cc(OC)c1OC | 10.5 |
| Cc1ccc(Cn2nc(C)c(NC(=O)C3(C)CC3(Br)Br)c2C)cc1 (stereo not drawn) | 7.98 |
| CCCCc1nc(C(N)=O)c2[nH]c(=O)n(-c3ccc(OC)cc3OC)c2n1 | 5.55 |
| O=C(CSc1nnnn1-c1ccc(F)cc1)Nc1ccc(N2CCOCC2)c(Cl)c1 | -12.5 |
| CCOC(=O)c1ccccc1Oc1c(F)c(F)nc(NCCO)c1F | 10.5 |
| O=C1NC[C@H](CC2CCCCC2)N(CCc2cccc(F)c2)C1=O | 13.6 |
| Cn1c(=O)[nH]c2cc3ccccc3cc21 | 7.75 |
| Cc1cc(C)c2c(CN3CCN(C/C=C/c4ccccc4)CC3)cc(=O)oc2c1 | -41.5 |
| CC(=NCCN1CCN(C(=S)Nc2ccccc2)CC1)C1=C(O)CC(C)(C)CC1=O | -0.835 |
| CN(C)C=O.O=C(NCCc1ccccc1)c1oc2ccccc2c1COc1ccccc1 | 8.07 |
| O=C(Nc1nc2c(Cl)cccc2s1)c1ccc([N+](=O)[O-])o1 | 19.4 |

| SMILES | hERG current change (%, negative = inhibition) at 1uM [%] |
| --- | --- |
| Cc1cc(S(=O)(=O)Nc2ccc(C(=O)NCC(c3ccco3)N3CCCCC3)cc2)ccc1F (stereo not drawn) | 10.5 |
| CCOC(=O)c1c(C)n(CCOc2ccccc2)c2ccc(O)cc12 | 20.2 |
| O=C(NCCN1CCOCC1)c1ccc(Cl)nc1 | 15.6 |
| COc1ccc(C(=O)CSc2nnc(CNc3nc(-c4ccccc4)cs3)n2C)cc1 | 4.81 |
| COCCNC(=S)Nc1ccc2nsnc2c1 | -1.43 |
| COc1ccc(CN(C)C(=O)c2[nH]c(C)c(C(C)=O)c2C)c(OC)c1OC | 5.68 |
| Oc1ccc(Cl)cc1C(C#Cc1ccccc1)N1CCOCC1 (stereo not drawn) | 1.2 |
| O=C(NCC1CCCO1)c1cccc(N2C(=O)C3C4C=CC(C4)C3C2=O)c1 (stereo not drawn) | 6.71 |
| Cc1ccccc1OCC(=O)NNC(=O)C1CC(=O)N(c2ccc3c(c2)OCCO3)C1 (stereo not drawn) | 4.16 |
| CCCCNC(=O)c1ccc2c(SCC(=O)O)c3c(nc2c1)CCCC3 | 5.78 |
| COc1ccc(-c2cn3cccnc3n2)cc1NC(=O)C1CCCC1 | 1.4 |
| COC(=O)[C@H](Cc1ccccc1)NC(=O)NCc1ccc(S(N)(=O)=O)cc1 | 17.4 |
| Cn1ncc2c(NNC(=O)c3ccc(Cl)cc3Cl)ncnc21 | 14.7 |
| CC(=O)C(=Nc1ccc(Cl)cc1Cl)NNc1cccc(Cl)c1 | 12.3 |
| COc1ccc(Nc2ncccc2C(=O)NCc2ccccc2)cc1 | 8.04 |
| CN(CC(=O)Nc1c(Cl)cccc1Cl)C(=O)Cn1[nH]c(=O)c2ccccc2c1=O | 1.64 |
| Cc1ccc(CNC(=O)C2CC=CCC2C(=O)O)cc1 (stereo not drawn) | 13.2 |
| Cc1nc2c(C)cccn2c1/C(O)=C1\C(=O)C(=O)N(CCN(C)C)C1c1ccncc1 (stereo not drawn) | 10.1 |
| CC(CCc1ccccc1)NC(=O)CSc1ccccn1 (stereo not drawn) | 3.49 |
| COc1cc(CN2CCN(c3cccc(C)c3C)CC2)cc(OC)c1O | -20.4 |
| O=C(CC1(CC(=O)N2CCOCC2)CCCC1)Nc1ccccc1 | 9.08 |
| COc1cc(CNn2cnnc2)ccc1OCC(=O)NC1CCCCC1 | 5.25 |
| Cc1nnc(NC(=O)c2ccccc2NC(=O)c2ccccc2)s1 | 0.378 |

| SMILES | hERG current change (%, negative = inhibition) at 1uM [%] |
| --- | --- |
| COc1ccc(NC(=O)CSc2cn[nH]n2)c(OC)c1 | 12.7 |
| CCN(C(=O)CSc1nnc(-c2c[nH]c3ccccc23)o1)C1CCS(=O)(=O)C1 (stereo not drawn) | 5.54 |
| CCOc1ccccc1OCCCNCc1ccccc1.O=C(O)C(=O)O | 7.63 |
| Cc1ccc(CS(=O)(=O)CCC(=O)NCc2ccc3c(c2)OCO3)cc1 | 7.4 |
| Cc1ccc(-c2nc(SC(C)C(=O)N3CCOCC3)n[nH]2)cc1 (stereo not drawn) | 9.18 |
| COc1ccc(CCN(C)C(=O)/C=C/c2c(Cl)nc3ccccn23)cc1OC | 17.9 |
| O=C(O)C(=O)O.O=S(=O)(c1ccc(Cl)c(C(F)(F)F)c1)N1CCN(CC(O)COCC2CCCO2)CC1 (stereo not drawn) | -0.996 |
| CC1(C)[C@@H](O)CC[C@]2(C)C3C(O)C=C4[C@H]5C[C@@](C)(C(=O)O)CC[C@]5(C)CC[C@]4(C)[C@]3(C)CC[C@@H]12 (stereo partly drawn) | 12.7 |
| Cc1nc2nc(-c3ccccc3)cn2nc1C | 7.2 |
| O=C(NCCN1CCOCC1)c1c(O)nc2ccccn2c1=O | 9.31 |
| COC(=O)C1=C(C)N(C)C(=S)NC1c1ccc(Cl)cc1 (stereo not drawn) | 8.24 |
| O=c1[nH][nH]c(-c2ccccc2O)c1C(C[N+](=O)[O-])c1ccc(Cl)cc1Cl (stereo not drawn) | 12.9 |
| COc1ccc(NC(=O)c2sc3nc(N4CCOCC4)c4c(c3c2N)CC(C(C)C)OC4)c(OC)c1 (stereo not drawn) | 15.2 |
| O=C([O-])CSc1nc2c(c(C(F)(F)F)n1)CCCC2.[Na+] | 13.8 |
| O=C(Oc1ccc(/C=N/O)cc1)c1ccccc1Cl | 9.77 |
| O=C(Cc1ccc([N+](=O)[O-])cc1)N1N=C(c2ccncc2)CC1(O)C(F)(F)F (stereo not drawn) | 9.79 |
| CN1C(=O)C(Cc2cccc3ccccc23)C(=O)N(C)C1=O | 9.31 |
| O=C(c1ccccc1)N1CCN(CCc2ccccc2)CC1 | -5.25 |
| C=CCOc1c(Br)cc(CNn2cn[nH]c2=S)cc1OC | -1.26 |
| Cc1nnc(NC(=O)CSc2nnc(CNC(=O)c3ccccc3)n2-c2ccccc2)s1 | 9.59 |
| CCCN(CCC)CCNS(=O)(=O)c1ccc2c(c1)oc(=O)n2C | 17.9 |
